From the supplement of paper PMC12217912
The list shows a part of the results. The full chains were built here from the parent and the listed change. Inactive controls read about 0.05.

B1: TEV protease; numbered along this chain (parent)
chain: MGESLFKGPRDYNPISSSICHLTNESDGHTTSLYGIGFGPFIITNKHLFRRNNGTLVVQSLHGVFKVKDTTTLQQHLVDGRDMIIIRMPKDFPPFPQKLKFREPQREERICLVTTNFQTKSMSSMVSDTSCTFPSGDGIFWKHWIQTKDGQCGSPLVSTRDGFIVGIHSASNFTNTNNYFTSVPKNFMELLTNQEAQQWVSGWRLNADSVLWGGHKVFMVKPEEPFQPVKEATQL

Variants of: B1
Assay: raw area under fraction-flipped curve 0-4 h after induction (AUC4h, not background-subtracted), DNA-recorder readout of cleavage of the substrate (dimensionless); higher = more cleavage of the substrate by the protease variant
Conditions: temperature: 34 °C; time window: 0-4 h after rhamnose induction
Procedure: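 In vivo DNA recorder in E. coli TOP10(DE3) ΔrhaA at 34 °C. Each TEVp single-site mutant (parent TEVp 0) is paired with a single-site variant of the 7-mer TEVs (canonical ENLYFQ|S). The substrate sits between flexible linkers in a Bxb1-sfGFP-TEVs-SsrA fusion, so cleavage stabilises Bxb1 and speeds flipping of a recombination array, read by NGS. The value is the raw area under the fraction-flipped curve over 0-4 h after rhamnose induction (AUC4h), with ≥20 reads per time point. It is not background-subtracted; inactive controls average about 0.047.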
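Further: Bxb1 expression induced with 0.2% (w/v) L-rhamnose at OD600 near 0.5, cultures sampled hourly, flipped fraction per protease–substrate barcode pair counted by paired-end Illumina sequencing.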

Variant | area with substrate EALYFQS | area with substrate ECLYFQS | area with substrate EDLYFQS | area with substrate EELYFQS | area with substrate EGLYFQS | area with substrate EILYFQS | area with substrate EMLYFQS | area with substrate EPLYFQS | area with substrate EQLYFQS | area with substrate ERLYFQS | area with substrate ESLYFQS | area with substrate EVLYFQS | area with substrate EWLYFQS | area with substrate EYLYFQS | area with substrate ELLYFQS | area with substrate EFLYFQS | area with substrate EHLYFQS | area with substrate EKLYFQS | area with substrate ETLYFQS
R10L | 0.123 | 0.113 | 0.0953 | 0.107 | 0.0913 | 0.104 | 0.102 | 0.114 | 0.12 | 0.0877 | 0.102 | 0.0977 | 0.0998 | 0.119 |  |  |  |  | 
R10I | 0.0856 | 0.127 | 0.0896 | 0.121 |  | 0.0953 | 0.0671 | 0.109 | 0.0943 | 0.0743 | 0.105 | 0.0902 |  | 0.0729 | 0.0763 |  |  |  | 
E25A | 0.104 | 0.127 | 0.123 | 0.142 | 0.141 |  | 0.111 |  | 0.128 | 0.079 | 0.113 | 0.111 | 0.0802 |  | 0.0965 | 0.0905 | 0.116 | 0.0775 | 0.0993
H21S | 0.11 | 0.0849 | 0.125 | 0.111 | 0.0686 | 0.0922 | 0.0944 | 0.122 | 0.0905 | 0.091 | 0.113 | 0.09 | 0.0894 | 0.146 | 0.0751 | 0.0758 | 0.102 | 0.0795 | 0.116
H21K | 0.113 | 0.113 | 0.164 | 0.089 | 0.0869 | 0.0856 | 0.0993 | 0.128 |  | 0.0933 | 0.119 | 0.0948 | 0.121 | 0.0795 | 0.0883 | 0.0946 | 0.113 | 0.0889 | 
S26V | 0.0742 | 0.0539 | 0.097 | 0.088 | 0.0723 | 0.0986 | 0.0867 |  | 0.0851 | 0.08 | 0.0932 | 0.0541 |  |  |  |  |  | 0.064 | 0.141
C20E | 0.0759 | 0.0417 | 0.039 |  | 0.037 |  | 0.0413 | 0.049 |  | 0.0394 | 0.055 | 0.0468 | 0.0432 | 0.0483 |  | 0.0278 | 0.0325 | 0.04 | 
C20A | 0.138 | 0.111 | 0.156 | 0.129 | 0.109 | 0.113 |  | 0.11 |  | 0.116 | 0.0928 | 0.121 | 0.0714 |  | 0.104 |  | 0.118 |  | 
T23M | 0.103 | 0.0931 | 0.13 | 0.115 | 0.0886 | 0.0722 | 0.141 | 0.096 | 0.104 | 0.1 | 0.101 | 0.0632 | 0.0841 | 0.124 | 0.0671 | 0.0992 | 0.113 | 0.0968 | 
T23Q | 0.11 | 0.103 | 0.102 | 0.157 | 0.0933 | 0.0716 | 0.119 | 0.115 |  | 0.12 | 0.093 | 0.113 |  | 0.0915 | 0.0929 | 0.118 |  | 0.107 | 0.0955
L22A | 0.0664 | 0.0638 | 0.0763 | 0.0722 | 0.0563 | 0.0589 | 0.0725 | 0.0883 | 0.0797 | 0.0652 | 0.0778 | 0.0632 | 0.0655 | 0.071 | 0.0542 | 0.0664 | 0.0684 | 0.0685 | 0.067
S18F | 0.115 | 0.096 |  | 0.0903 | 0.0901 | 0.0931 | 0.0914 | 0.0908 | 0.101 | 0.107 | 0.0902 | 0.0702 |  | 0.0921 | 0.108 |  | 0.0772 | 0.0965 | 0.0886
S18V | 0.127 | 0.0882 | 0.0958 | 0.118 | 0.0864 | 0.0856 |  | 0.109 | 0.115 | 0.0782 | 0.101 | 0.0847 | 0.0994 | 0.0897 | 0.0948 |  |  | 0.125 | 0.11
S18Y | 0.0905 | 0.101 | 0.0664 |  |  | 0.0864 | 0.0838 | 0.105 | 0.103 | 0.0884 | 0.0943 | 0.104 | 0.093 |  | 0.0963 |  |  |  | 0.108
S18P | 0.0958 | 0.056 |  | 0.0806 | 0.0547 | 0.059 | 0.073 | 0.0983 | 0.0887 |  | 0.0599 | 0.0789 | 0.0857 | 0.0667 | 0.0643 | 0.0912 |  | 0.0927 | 0.0634
I19Q | 0.136 | 0.11 | 0.127 | 0.106 | 0.0896 | 0.0994 | 0.0937 |  | 0.125 | 0.101 | 0.108 |  |  |  |  | 0.0987 | 0.109 | 0.0705 | 0.117
I19T | 0.103 | 0.0999 | 0.108 |  | 0.114 | 0.0849 |  |  | 0.12 | 0.0941 | 0.0868 | 0.0644 |  | 0.0999 |  |  |  | 0.11 | 
N24K | 0.121 | 0.0707 | 0.0975 | 0.115 | 0.0669 | 0.0941 | 0.0826 | 0.0981 | 0.0891 | 0.0744 | 0.0871 | 0.067 | 0.0633 | 0.11 | 0.0718 | 0.0557 | 0.0999 | 0.0838 | 0.108
D27V | 0.092 | 0.0815 | 0.106 |  | 0.0853 | 0.0709 | 0.126 | 0.0878 | 0.0908 | 0.0906 | 0.0791 | 0.0865 | 0.0855 |  | 0.095 | 0.0796 |  | 0.101 | 0.111
P9A | 0.123 | 0.0861 | 0.143 |  | 0.0797 |  | 0.117 |  | 0.103 | 0.0963 |  | 0.0823 |  |  |  |  | 0.104 | 0.0824 | 
D11I | 0.0975 | 0.0961 | 0.0907 |  | 0.0417 | 0.0709 | 0.0953 | 0.114 | 0.0998 |  | 0.0943 |  | 0.115 |  | 0.0814 |  |  |  | 
D11R | 0.128 | 0.116 |  | 0.134 |  | 0.108 | 0.123 | 0.13 | 0.132 | 0.107 | 0.123 | 0.104 | 0.109 |  | 0.0875 | 0.082 |  | 0.119 | 
D11K | 0.0963 | 0.0965 | 0.116 | 0.112 | 0.136 | 0.116 | 0.0784 |  |  | 0.107 | 0.0882 | 0.076 |  | 0.069 | 0.111 |  | 0.168 | 0.0637 | 0.11
Y12P | 0.102 | 0.0851 | 0.13 | 0.124 | 0.0631 |  | 0.104 | 0.107 | 0.107 |  | 0.111 | 0.0873 |  | 0.108 | 0.105 | 0.101 | 0.09 | 0.1 | 0.0933
